Among all 44,000 compounds or so, about 340 (0.77%) were called active. Another 5% or so got no clear call; they are omitted. Calls come from the whole dose curve; as a rule, active = well fitted inhibition curve with a large enough effect; inconclusive = small, poorly fitted or top-dose-only effect; inactive = flat fitted curve, though single readings scatter. Some of the results follow.
assay: Acumen qHTS Assay for Inhibitors of the mTORC1 Signaling Pathway in MEF (Tsc2-/-, p53-/-) Cells: Sytravon; conditions: phospho-rpS6 immunofluorescence/PI, 24 h; series mostly up to 38.3 µM; activity change, negative = inhibition: at the top concentration;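 note: plate controls were DMSO for no effect and rapamycin for full effect; nearly all actives have a fitted effect of over 50% in size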
In short: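 Readout is phospho-S6 Alexa 488 signal normalized to PI per well, reported as % active cells with thresholds set from rapamycin (7.5 nM) and DMSO controls. Cells: Tsc2-/-, p53-/- MEFs, 24 hrs compound at 37 C; PI cell number serves as viability.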

Row | SMILES | activity change, negative = inhibition
1 | COC(=O)c1ccc(CSc2nc3c(c(=O)[nH]2)CCC3)cc1 | inactive: 0.189%
2 | CCc1ccccc1NC(=O)Cn1c(=O)n(Cc2ccco2)c(=O)c2sc3ccccc3c21 | inactive: 5.04%
3 | Cc1ccc(NC(=O)Cn2c(=O)n(Cc3ccc4c(c3)OCO4)c(=O)c3ccccc32)c(C)c1 | inactive: 0.604%
4 | Cc1ccc(C)c(N2CCN(S(=O)(=O)c3cnc(N)nc3)CC2)c1 | inactive: -16%
5 | Cc1ccc2nc(N3CCN(c4cccc(C)c4C)CC3)c3nncn3c2c1 | inactive: -6.21%
6 | CCOC(=O)c1ccc2c(c1)N(Cc1ccccc1)C(=O)c1ccccc1S2 | inactive: 8.7%
7 | CC(C)CCn1c(=O)c2sccc2n2c(CCCC(=O)NC3CCC(C)CC3)nnc12 (stereo unspecified) | inactive: -3.75%
8 | CCCCc1ccc(NC(=O)CSc2nc3ccccc3nc2N2CCOCC2)cc1 | inactive: 3.31%
9 | COc1ccc(CCNC(=O)CCSCc2ccccc2Cl)cc1OC | inactive: 9.67%
10 | O=C(NCCS(=O)(=O)N1CCN(c2ccc(F)cc2)CC1)C1CC(=O)N(c2ccc(F)cc2)C1 (stereo unspecified) | inactive: 0.624%
11 | CCCCOc1ccc(S(=O)(=O)n2nc(C)c(S(=O)(=O)N3CCC(C)CC3)c2C)cc1 | inactive: -0.313%
12 | Cc1ccn2c(Nc3ccc4c(c3)OCO4)c(-c3ccc(O)cc3)nc2c1 | inactive: -0.682%
13 | CCCOC(=O)C(C)n1nnc2sc(-c3ccccc3)cc2c1=O (stereo unspecified) | inactive: 4.39%
14 | CCCN1CCN(c2ncnc3sc(C(=O)Nc4ccc(N(CC)CC)cc4C)c(C)c23)CC1 | inactive: 1.08%
15 | COc1cccc(CNS(=O)(=O)c2cc(Br)cc3c2N(C(C)=O)C(C)C3)c1 (stereo unspecified) | inactive: -2.04%
16 | COc1cccc(CC(=O)NCc2ccc3c(c2)CCN3C(C)=O)c1 | inactive: 2.53%
17 | CCc1ccccc1NC(=O)C1CCN(c2nn3c(=O)cc(C)nc3s2)CC1 | inactive: -0.564%
18 | CN(C)S(=O)(=O)Nc1ccc(-c2cn3ccsc3n2)cc1 | inactive: 3.93%
19 | Cc1ccc2oc(C(=O)Nc3ccc(S(=O)(=O)N(C)Cc4ccccc4)cc3)cc(=O)c2c1 | inactive: 6.04%
20 | Cc1cccc(Cc2cnc(NC(=O)c3ccc4c(c3)CC(c3ccccc3)OC4=O)s2)c1 (stereo unspecified) | inactive: -3.99%
21 | CCc1ccc(-n2c(=O)c3c4c(sc3n(CC(=O)NCCCOC)c2=O)CCC4)cc1 | inactive: -12.4%
22 | Cc1ccc(-n2nc(C(=O)N3CCN(c4ccccc4)CC3)c(=O)n(C)c2=O)cc1 | inactive: 0.899%
23 | Cc1ccccc1Cn1c(C)c(CNCc2ccccc2)c(C(=O)O)c1C | inactive: -3.72%
24 | CC(NC(=O)c1ccc2nc(CCc3ccccc3)oc2c1)c1ccccc1 (stereo unspecified) | inactive: -2.21%

Row | SMILES | activity change, negative = inhibition
25 | COc1ccc(NC(=O)c2nc(SCc3ccccc3F)ncc2Cl)cc1 | inactive: 4.03%
26 | O=C(NCCc1ccc(Cl)cc1)c1ccc2c(c1)N(Cc1ccccc1)CCS2 | inactive: 1.89%
27 | Cc1ccc(C)c(NC(=O)CCc2c(C)n(C)c3cc(-c4ccccc4C)nn3c2=O)c1 | inactive: 0.707%
28 | COc1ccc(NC(=O)CN(C)S(=O)(=O)c2ccc3[nH]c4c(c3c2)CCCC4)cc1OC | inactive: 0.207%
29 | CC(C)c1ccc(C2=CC(c3cccc(Cl)c3)n3ncnc3N2)cc1 (stereo unspecified) | inactive: -0.919%
30 | Cc1ccc(NC(=O)CCS(=O)(=O)c2cccc3nonc23)c(C)c1 | inactive: 1.01%
31 | CCCN1C(C(=O)c2ccccc2)=C(OC(=O)c2ccc(F)cc2)c2ccccc2S1(=O)=O | inactive: -7.84%
32 | Cc1ccc(C)c(Cn2c3ccccc3c3cnn(CC(=O)N4CCCCC4)c(=O)c32)c1 | inactive: -6.44%
33 | CCOc1ccc(NC(=O)Cn2c(CCC(=O)O)ccc2-c2ccc(Cl)cc2)cc1 | inactive: -7.89%
34 | COc1ccc(Cl)cc1NC(=O)c1cc(S(=O)(=O)N2CCc3ccccc32)cn1C | inactive: 3.18%
35 | Cc1cccc(-n2c(=O)c3ccccc3n(Cc3ccccc3C#N)c2=O)c1 | inactive: 4.28%
36 | Cc1nn(CCC(=O)NC(C)C)c(=O)c2nn(-c3ccccc3)c(C)c12 | inactive: -7.52%
37 | O=C(CSc1nc2c([nH]c3ccccc32)c(=O)n1-c1cccc(Cl)c1)N1CCc2ccccc21 | inactive: 3.67%
38 | COc1cccc(Cc2nc3ccccc3nc2SCC(=O)N2CCCCC2C)c1 (stereo unspecified) | inactive: 1.15%
39 | Cc1ccc2nc(NCc3ccccc3Cl)c3nnnn3c2c1 | inactive: -17.1%
40 | COc1cccc(C(=O)CN2CCN(S(=O)(=O)c3ccc(Cl)cc3)CC2)c1 | inactive: 5.03%
41 | COc1cc2ccccc2cc1C(=O)Nc1ccc2oc(-c3cc(Br)ccc3Cl)nc2c1 | inactive: -3.25%
42 | CCOc1ccccc1NC(=O)c1sc2nc3c(cc2c1N)CN(Cc1ccccc1)CC3 | inactive: -15.1%
43 | O=C(CN1C(=O)CSc2ccc(S(=O)(=O)N3CCCCC3)cc21)NCc1ccc(F)cc1Cl | inactive: 0%
44 | O=C(NCc1ccco1)c1ccc2c(c1)N(Cc1ccc(F)cc1)C(=O)c1ccccc1S2=O (stereo unspecified) | inactive: -14.5%
45 | COc1cc(NC(=O)CCc2c(C)n(C)c3cc(-c4ccccc4C)nn3c2=O)cc(OC)c1OC | inactive: -0.588%
46 | CC(=O)c1ccc(NC(=O)Cn2c3ncccc3c(=O)n2-c2ccc(C)cc2)cc1 | inactive: -21%
47 | COc1ccc(NC(=O)c2cnc(SCC(=O)Nc3nc4ccc(C)cc4s3)n(C)c2=O)cc1 | inactive: 0.194%
48 | O=C(c1ccco1)c1cn(CCOc2ccc(Cl)cc2)c2ccccc12 | inactive: 2.94%

Row | SMILES | activity change, negative = inhibition
49 | Cc1ccc(-c2noc(CSc3nnc(-c4ccc(Cl)cc4)n3C)n2)cc1 | inactive: -0.282%
50 | Cc1cccc(C(=O)NCC(c2ccc3c(c2)OCO3)N2CCOCC2)c1 (stereo unspecified) | inactive: -5.37%
51 | O=C(c1cccs1)N1CCCc2cc(NS(=O)(=O)c3ccc(Cl)cc3)ccc21 | inactive: 0%
52 | COc1ccc(C(CNC(=O)c2ccc(C)cc2)N2CCOCC2)cc1 (stereo unspecified) | inactive: 0.742%
53 | CCC(=O)N1CCc2cc(CNC(=O)Nc3ccc(OC)cc3OC)ccc21 | inactive: -14.1%
54 | O=C(CSc1nccn1Cc1ccccc1)NC1CCCC1 | inactive: 6.54%
55 | Cc1cccc(-c2noc(-c3ccc(N4CCCC4)c([N+](=O)[O-])c3)n2)c1 | inactive: -0.0566%
56 | COc1ccc(NC(=O)C2CCN(S(=O)(=O)c3c(C)noc3/C=C/c3ccco3)CC2)cc1 | inactive: -2.04%
57 | CCN(C(=O)CN(C)S(=O)(=O)c1ccc2c(c1)n(C)c(=O)c(=O)n2C)c1cccc(C)c1 | inactive: -22.9%
58 | CCN(CC)C(=O)c1sc(NC(=O)C2c3ccccc3Oc3ccccc32)c(C(=O)OC(C)C)c1C | inactive: -1.46%
59 | CN(C)c1ccc(C(CNS(=O)(=O)c2cc(F)ccc2F)N2CCOCC2)cc1 (stereo unspecified) | inactive: 15.6%
60 | O=C(CSCc1ccc(F)cc1)N1CCN(c2ccccc2)CC1 | inactive: 7.78%
61 | Cc1cc(C)c(Cn2c(=O)n(CCCCCC(=O)NCc3ccc4c(c3)OCO4)c(=O)c3sccc32)c(C)c1 | inactive: 0.084%
62 | COc1cccc(NC(=O)Cn2c(=O)n(-c3cccc(OC)c3)c(=O)c3c4c(sc32)CCCC4)c1 | inactive: -0.831%
63 | COc1ccc(NS(=O)(=O)c2ccc3[nH]c4c(c3c2)CCCC4)c(OC)c1 | inactive: -7.69%
64 | CCOc1ccc(Nc2nc3ccccc3c3nnc(CC)n23)cc1 | inactive: 0.542%
65 | Cc1ccc(CN(C(=O)c2ccccc2Br)C2CCS(=O)(=O)C2)o1 (stereo unspecified) | inactive: 0.637%
66 | CC1CCC(NC(=O)c2ccc3c(c2)N(Cc2cccc(Cl)c2)C(=O)c2ccccc2S3=O)CC1 (stereo unspecified) | inactive: -0.0113%
67 | O=C(NCc1ccc(Cl)cc1)C(=O)Nc1cccc(Br)c1 | inactive: -3.63%
68 | Cn1c(=O)c2c(SCC(=O)NCc3ccco3)nc(-c3ccccc3F)nc2n(C)c1=O | inactive: -0.983%
69 | CCOc1ccccc1NC(=O)COc1cccc2c(=O)n(CCOC)ccc12 | inactive: -5.45%
70 | COc1ccc(NC(=O)CC2C(=O)N(c3ccccc3)C(=O)N2Cc2cccnc2)cc1 (stereo unspecified) | inactive: -7.14%
71 | COc1cccc(-n2c(=O)c3c4c(sc3n(Cc3ccc(F)cc3Cl)c2=O)CCCC4)c1 | inactive: -2.53%
72 | O=C(CCCc1nc(-c2ccco2)no1)Nc1ccccc1[N+](=O)[O-] | inactive: -18.4%

Row | SMILES | activity change, negative = inhibition
73 | CCOC(=O)c1ccc(NC(=O)c2c(C)oc3nc(C)nc(N4CCCC4)c23)cc1 | inactive: 5.95%
74 | CC(=O)Nc1c(C(=O)Nc2cccc(C)c2)nnn1-c1ccc(C)cc1 | inactive: -6.15%
75 | CCC1CCCCN1S(=O)(=O)c1ccc(N2CCCCS2(=O)=O)cc1 (stereo unspecified) | inactive: 9.57%
76 | COc1ccc(-c2[nH]ncc2C(=O)NCc2cccc(F)c2)cc1 | inactive: -0.422%
77 | Cc1ccc(-n2nc(-c3ccc(F)cc3)c3cnc4cc5c(cc4c32)OCO5)cc1C | inactive: -14.8%
78 | CCc1ccc(NC(=O)CC(c2ccc(C)cc2)N2Cc3ccccc3C2=O)cc1 (stereo unspecified) | inactive: -0.313%
79 | COCCNC(=O)c1ccc2nc(CCc3ccccc3)oc2c1 | inactive: -4.54%
80 | Cc1ccc(Cl)cc1N1CCN(C(=O)CCSCc2ccccc2F)CC1 | inactive: 5.43%
81 | COc1ccc(NC(=O)c2oc3ccc(S(=O)(=O)N(C)C4CCCCC4)cc3c2C)cc1Cl | inactive: 1.96%
82 | CCc1ccc(-c2cc(C)no2)cc1S(=O)(=O)N1CCN(c2cccc(Cl)c2)CC1 | inactive: -16.2%
83 | Cc1c(C(=O)Nc2ccc(Br)cc2F)oc2ccc(S(=O)(=O)N3CCC4(CC3)OCCO4)cc12 | inactive: 6.19%
84 | Cc1ccc(CCNC(=O)c2sc3ncccc3c2-n2c(C)ccc2C)cc1 | inactive: -3.02%
85 | CC1CCCCN1c1c(S(=O)(=O)c2ccc(Cl)cc2)cnc2ccccc12 (stereo unspecified) | inactive: -8.1%
86 | CCC(=O)Nc1ccc(CC)cc1-c1nc2ccccc2n(CC(=O)Nc2cccc(OC)c2)c1=O | inactive: -3.62%
87 | COc1cccc(C2=CC(c3ccccc3F)n3ncc(C(=O)Nc4ccc(C)cc4)c3N2)c1 (stereo unspecified) | inactive: -16.3%
88 | Cc1cc(C)cc(-n2ccnc(NCCc3ccccc3)c2=O)c1 | inactive: -0.342%
89 | COc1ccc(-c2nc(CS(=O)CC(=O)NCCc3ccccc3)c(C)o2)cc1OC (stereo unspecified) | inactive: 0.226%
90 | Cc1ccc(Cl)cc1-n1nnc(-c2nsc(NC(=O)c3ccccc3Cl)n2)c1C | inactive: 0.889%
91 | CCn1cc2nc(SCc3cccc(C(F)(F)F)c3)n(Cc3ccc(Cl)cc3)c(=O)c2n1 | inactive: -6.19%
92 | COc1ccc(OC)c(NC(=O)CCCc2nnc3n(C(C)C)c(=O)c4sccc4n23)c1 | inactive: -12.4%
93 | Cc1ccc2oc(C(=O)Nc3ccc(S(=O)(=O)N4CCCC(C)C4)cc3)cc(=O)c2c1 (stereo unspecified) | inactive: -2.7%
94 | CCc1ccc(-n2c(=O)c3ccccc3n(CC(=O)NCCc3ccc(OC)c(OC)c3)c2=O)cc1 | inactive: -4.02%
95 | COc1ccc(Cl)cc1NC(=O)NCCn1c(=O)oc2ccc(C)cc21 | inactive: -20.2%
96 | COc1ccc(C)cc1NC(=O)N1CCC(CN2CCOCC2)CC1 | inactive: -3.75%

From PubChem BioAssay AID493208 (National Center for Advancing Translational Sciences (NCATS), 2011)
